About 31,000 (8.9%) of roughly 350,000 compounds were called active. Inconclusive results, whose numbers are uncertain, are shown with a selection of clear calls. Calls follow the shape of the dose curve; as a rule, active = well fitted inhibition curve with a large enough effect; inconclusive = small, poorly fitted or top-dose-only effect; inactive = no such curve, though single readings can be large or run the other way. A potency beside an inconclusive call is a rough fit, not a confirmed value.
Biological target: Histone-lysine N-methyltransferase EHMT2 (Homo sapiens) (UniProt Q96KQ7)
UniProt Q96KQ7, sequence (Q96KQ7 whole entry, looked up): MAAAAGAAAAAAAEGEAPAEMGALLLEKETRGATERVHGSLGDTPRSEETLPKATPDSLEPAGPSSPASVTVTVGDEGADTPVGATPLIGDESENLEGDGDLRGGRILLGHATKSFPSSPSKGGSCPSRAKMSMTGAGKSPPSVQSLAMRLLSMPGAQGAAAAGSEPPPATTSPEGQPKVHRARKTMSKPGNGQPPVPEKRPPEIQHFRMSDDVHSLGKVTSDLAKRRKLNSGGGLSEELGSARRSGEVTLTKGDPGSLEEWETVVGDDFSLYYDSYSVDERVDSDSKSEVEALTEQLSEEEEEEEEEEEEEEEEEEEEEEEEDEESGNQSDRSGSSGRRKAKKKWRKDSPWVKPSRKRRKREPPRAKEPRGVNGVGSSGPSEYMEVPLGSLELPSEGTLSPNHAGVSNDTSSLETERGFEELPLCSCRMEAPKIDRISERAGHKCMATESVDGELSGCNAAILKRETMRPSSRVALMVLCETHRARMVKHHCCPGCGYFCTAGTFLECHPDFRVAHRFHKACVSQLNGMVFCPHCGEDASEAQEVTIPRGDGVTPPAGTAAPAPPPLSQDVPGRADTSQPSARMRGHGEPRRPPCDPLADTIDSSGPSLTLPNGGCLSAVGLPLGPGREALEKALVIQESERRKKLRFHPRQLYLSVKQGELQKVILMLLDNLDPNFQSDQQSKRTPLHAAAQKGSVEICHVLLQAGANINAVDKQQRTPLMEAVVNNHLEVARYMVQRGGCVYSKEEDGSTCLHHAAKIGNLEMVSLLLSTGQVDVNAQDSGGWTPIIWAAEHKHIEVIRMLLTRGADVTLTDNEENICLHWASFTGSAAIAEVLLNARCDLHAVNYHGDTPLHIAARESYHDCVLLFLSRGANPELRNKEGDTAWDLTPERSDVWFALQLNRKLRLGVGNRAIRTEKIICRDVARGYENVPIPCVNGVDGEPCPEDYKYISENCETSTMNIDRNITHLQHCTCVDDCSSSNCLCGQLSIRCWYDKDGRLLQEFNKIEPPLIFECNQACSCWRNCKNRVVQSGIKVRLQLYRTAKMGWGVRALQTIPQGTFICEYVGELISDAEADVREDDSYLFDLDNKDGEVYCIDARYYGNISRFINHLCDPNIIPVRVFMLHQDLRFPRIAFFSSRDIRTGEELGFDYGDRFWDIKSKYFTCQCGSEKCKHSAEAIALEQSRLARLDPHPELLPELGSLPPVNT
Test: qHTS Assay for Inhibitors of Histone Lysine Methyltransferase G9a; also: nearly all actives have a fitted effect of over 75% in size
Details: G9a H3K9 monomethylation, AlphaScreen, 2 h; activity, negative = inhibition: at 59 µM (top of the series) unless noted
How it was run: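 AlphaScreen read-out: biotin-H3K9 peptide (500 nM) methylation by 20 nM enzyme with 20 uM SAM, 2 h at room temperature after 15 min compound preincubation; anti-monomethyl H3K9 antibody plus donor/acceptor beads, 10 min dark.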
% is scaled to controls: 0 for no effect and ±100 for the full control effect; potency is read from the fitted curve at half-maximal effect; tags tell the direction and shape of the fitted curve.

Structure (SMILES) | Potency | activity, negative = inhibition
Cn1c(-c2sc3ccccc3c2Cl)n[nH]c1=S | inconclusive: 1.41 µM [inhibitor, full curve, poor fit] | 
COc1ccc(OC)c(/C=C/C(=O)c2ccc3c(c2)OCCO3)c1 |  | inactive: 6.24% [at 102 µM]
O=C(COc1ccc2c3c(c(=O)oc2c1)CCCC3)N1CCN(c2ccccc2)CC1 |  | inactive: 39% [at 102 µM]
COc1cc(S(=O)(=O)N2CCOCC2)ccc1NC(=O)CSc1nnc(N)s1 | active: 44.7 µM | 
C/C(CCc1ccc2c(c1)OCO2)=N\NC(=S)NC(C)C | inconclusive: 56.2 µM [inhibitor, partial curve, poor fit] | 
Cc1cc(/C=C2\SC(=O)N(C)C2=O)c(C)n1-c1ccc(S(N)(=O)=O)cc1 | active: 44.7 µM | 
CCc1c(C)c(C#N)c2nc3ccccc3n2c1NCCN(C)C |  | inconclusive: -59.9% [inhibitor]
Cc1ccccc1-n1c(=O)n(Cc2ccccc2)c(=O)c2[nH]cnc21 |  | inactive: 20.7%
Cc1[nH]nc2nc(SCC(=O)NCC3CCCO3)n(-c3ccc(Br)cc3)c(=N)c12 (stereo unspecified) |  | inactive: -4.82% [at 12.7 µM]
CC(C)CCn1c(CN2CCN(Cc3ccccc3)CC2)nc2c1c(=O)[nH]c(=O)n2C | inconclusive: 3.55 µM [inhibitor, partial curve, poor fit] | 
Cc1ccccc1CNC(=O)CCCn1nc(C)c2sc3ccccc3c2c1=O | inconclusive: 39.8 µM [inhibitor, single point] | 
Cc1ccc(NC(=O)CN2C(=O)NC(C)(C3CC3)C2=O)c([N+](=O)[O-])c1 (stereo unspecified) |  | inactive: 0.312% [at 12.7 µM]
c1ccc(CNC23CC4CC(CC(C4)C2)C3)nc1 | active: 14.1 µM | 
N#Cc1ccccc1NC(=O)CSc1nnc(-c2ccccc2)n1-c1ccccc1 | inconclusive: 89.1 µM [inhibitor, partial curve, poor fit] | 
CCOc1ccc(C2/C(=C(\O)c3ccc4c(c3)OCCO4)C(=O)C(=O)N2CCN2CCOCC2)cc1OC (stereo unspecified) | active: 44.7 µM | 
CN1C(=S)SC(C)(NO)C1(C)C (stereo unspecified) |  | inconclusive: -91.5% [inhibitor]
CCc1c(C2(O)CCCCC2)[nH]c2ncccc12 |  | inactive: 3.74% [at 0.501 µM]
CCn1c(CC(=O)Nc2ccc(F)cc2)nnc1SCC(=O)NC1CCCC1 | inconclusive: 3.98 µM [inhibitor, full curve] | 
COC(=O)CCSCc1cn2cc(Cl)ccc2n1 | active: 39.8 µM | 
CSc1ccccc1NS(=O)(=O)c1cccc2nonc12 | inconclusive: 50.1 µM [inhibitor, partial curve, poor fit] | 
O=C1/C(=C/Nc2ccc3c(c2)OCO3)CCc2ccccc21 | active: 1.78 µM | 
